Laboratory results reported in the supplement of paper PMC11417369.
Some of the results follow.

Each sequence was assayed on PfSIP2 AP2 domain 1 (GST-tagged) (assay: gcPBM binding intensity (ln(normalized median fluorescence intensity)); higher = stronger DNA binding).
Procedure, shortened: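 An Agilent 4 × 180k array of primer-extended double-stranded 36-bp intergenic genomic probes, with negative controls, was incubated for 1 h with GST-tagged P. falciparum DNA-binding domains expressed in E. coli. Alexa488 anti-GST antibody detected bound protein, scanned at 488 nm. Binding intensity is the highest Masliner-normalised natural-log median intensity across replicate spots of either probe orientation.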

Sequence	gcPBM binding intensity (ln)
AATGCACAGCTCTTAGGCAAAAGTGGGTATTTACAC [GTGCAC_negctrl_site579]	7.51
TGTATAAAAAACTAATGTACAAATGACAAGATATCT [XGTACX_site4600]	6.9
ACAATTCATTAGAATTGTACAAAAGGATGAAGCGAA [XGTACX_site5242]	7.3
ATTTAATACAAATACACACACAAATATGTACCTATA [CACACA_site7718]	7.16
ATTTTTTTTTTTTAATTTGATATTTGCGTTTATATA [CACACA_negctrl_site1305]	6.81
AATATATGATAATTTTTTTTTTTTTTTTTTAAATAT [CACACA_negctrl_site452]	6.79
AAAAAATGTTAAAAAAGTACTTTCTTTATTTAATAA [XGTACX_site2908]	6.8
AACAATTGTTAAAGGTGTACCATATGTATATAAGAA [XGTACX_site5723]	7.38
AGACGTAATAATTGTTGTACATAAAAAAATAAGAAA [XGTACX_site7594]	7.35
TGTGTTAGCAAAAAAGTGCACAGGGAAAAAAAAATA [GTGCAC_site9397]	10.2
ATGATATTATAAAAAAGTACATATGTATATAATTAT [XGTACX_site7652]	7.33
AAAAGCTTAAAAAATTGTACATAAATGAATAAATAT [XGTACX_site5201]	6.79
AAAAATAAAACAATTACACACATAACTTTATTTTTA [CACACA_site6563]	7.08
ACAAATGGAACTCCTACAAAAAATTTCCATAATATT [XGTACX_negctrl_site132]	6.76
TAAACCTATTATACGGGTACTTATTTGATTCTTATA [XGTACX_site5292]	6.72
ACCACCATATAACATACATGCATCTTTTTTCCCTTC [TGCATGCA_site583]	7.75
GAACTCATTTAATATTGTACATTCTGATATTTTTTA [XGTACX_site5995]	7.08
TATATACATACATATACACACATATATATATATATA [CACACA_site401]	9.34
GTATAAAATATTGATTGTACTTTATTCATTTTTTTT [XGTACX_site2520]	6.95
TCATATTCCAAGTGTACACATAAATCCCTAATAACA [CACACA_site5167]	7.33
TCATTGTTTAATATGTGTCCTCAAAATTTGTTATAT [XGTACX_site677]	7.09
TCTTGTTAATATATTAAATATATCTATAAATATATA [XGTACX_negctrl_site486]	7.09

Sequence	gcPBM binding intensity (ln)
TATATGTGATAACACGCACACAAATGTATATAATTT [CACACA_site2593]	7.12
AAAAAAAAAAAACATACACACATTGAACTTTTATAT [CACACA_site3250]	6.93
ATAAAATAAAAATTCTGTACAGAATTAAAAAAATAT [XGTACX_site6961]	7.09
TGTAGCATTTAATTCACACATAAAAAATGTATCCAT [CACACA_site4986]	6.94
AAAAAAAGTAAAAAGTGTACTTAATATATATATATA [XGTACX_site838]	9.07
TACAATATACCTACTTGTACACAAAATAAAAGTAGT [XGTACX_site6029]	7.13
TTTTATATAAATATCACACACACACGCATGTTTTAA [CACACA_site6187]	7.07
TACACACCTAACTATGCATGCATCAATATAGTGGAT [TGCATGCA_site443]	7.02
TATTCATGCATATACACACACATATATATATATTTT [CACACA_site3955]	7.57
AAAAAAAAATTAAACATACACACGTTACTATTTTTA [CACACA_site1687]	6.81
ATCATAATTTATTATACACACAATACGTGACCTATT [CACACA_site6977]	7.12
AATGAAAAATTGTAATGTACATAAATAAATAAATAA [XGTACX_site4048]	7.23
TACACCCAGAAATGCACACACATATATATATATATA [CACACA_site5289]	9.44
ATGAACATGTGACAATGTACATTTATATCTTAAGAA [XGTACX_site4960]	7.02
ATAATATATATATATATGTATGTATATATGTATGTA [GTGCAC_negctrl_site575]	7.39
TATTCTTATTATTACACACACAATTATATTTACCCC [CACACA_site6381]	7.48
TATATATATATAATAGCATGCTATATTATATATATA [TGCATGCA_site886]	9.16
TTAACATAAATTGTGTCATTTTTTTTTTTTTTTTTA [CACACA_negctrl_site1221]	6.61
TATTTTTTAATTGTTTCACACATTATTTTTTACATA [CACACA_site6078]	6.94
TTAACACATTTTATGTGTACTCATATGATTTAAAAT [XGTACX_site7516]	7.1
TTAAAATGAAGAAGTGCACACATATATATATTTATA [CACACA_site8063]	10.4
AATTTTTTTTTCTTTTGTACGTAAATATGTGTAGGC [XGTACX_site215]	8.15
